# Reference: PubChem BioAssay (NCATS)
# The inconclusive results got no clear call from the source; some entries with a clear call stand among them for comparison. Potencies beside an inconclusive call are fits to weak or partial responses and may not hold up. Activity calls are given as the source filed them. Calls come from the whole dose curve; as a rule, active = well fitted cell-killing curve with a large enough effect; inconclusive = small, poorly fitted or top-dose-only effect, or effect the other way; inactive = flat fitted curve, though single readings scatter.
# System: PA-1
# Assay: Primary qHTS to identify gynecologic anti-cancer compounds using libraries of approved drugs and bioactive compounds (AID 1345084); note: nearly all actives have a fitted effect of over 55% in size
# Conditions: Gynecologic cancer cell panel viability, ATPlite luminescence, 48 h; series mostly up to 57.5 µM
# Procedure, shortened: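 Cells, 1,000 per well, plated 16 h, then exposed 48 h at 37 C to compounds. Viability by ATPlite luminescence after 15 min at room temperature.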
# Potency is the fitted concentration of half-maximal effect; tags give direction and shape of the fitted curve.
row,Structure (SMILES),Potency
1,CNc1cccc(CCOc2ccc3c(c2)CN(CC(F)(F)F)C(=O)[C@H](CC(=O)O)C3)n1,"inconclusive: 0.316 µM [cytotoxic, full curve]"
2,Cc1ccccc1-n1c([C@H](C)Nc2nc(N)nc3nc[nH]c23)nc2cccc(C)c2c1=O,"inconclusive: 10 µM [cytotoxic, partial curve, poor fit]"
3,COc1cc2nc(N3CCN(C)CC3)nc(NC3CCN(Cc4ccccc4)CC3)c2cc1OC,"inconclusive: 39.8 µM [cytotoxic, single point]"
4,CCN(CC)CCOc1ccc2c(c1)C(=O)c1cc(OCCN(CC)CC)ccc1-2,"inconclusive: 28.2 µM [cytotoxic, single point]"
5,CC(=O)O[C@@](C)(C(=O)/C=C/C(C)(C)O)[C@H]1[C@H](O)C[C@@]2(C)[C@@H]3CC=C4[C@@H](C=C(O)C(=O)C4(C)C)[C@]3(C)C(=O)C[C@]12C,active: 11.2 µM
6,C=C1C(=O)O[C@@H]2C[C@H](C)[C@@H]3CC(=O)C(C)=C3C[C@H]12,"inconclusive: 31.6 µM [cytotoxic, single point]"
7,CCNC(=O)C#Cc1ccc2c(C(=Nc3ccc(CN(C)C)cc3)c3ccccc3)c(O)[nH]c2c1,"inconclusive: 2.51 µM [cytotoxic, partial curve]"
8,CC(=O)NCC(=O)N1C2CCC1c1cc(Nc3ncc(C(F)(F)F)c(NC4CCC4)n3)ccc12 (stereo not given),"inconclusive: 1 µM [cytotoxic, full curve, poor fit]"
9,Cc1c(NC(=O)OCC2COCCN2)cn2ncnc(Nc3ccc4c(cnn4Cc4cccc(F)c4)c3)c12 (stereo not given),"inconclusive: 1.12 µM [cytotoxic, full curve, poor fit]"
10,CN1CCN(c2ccc(C(=O)Nc3n[nH]c4ccc(Cc5cc(F)cc(F)c5)cc34)c(NC3CCOCC3)c2)CC1,"inconclusive: 39.8 µM [cytotoxic, single point]"
